# Laboratory results as given in PubChem BioAssay AID504332 (National Center for Advancing Translational Sciences (NCATS), 2011).
# Hit rate of the full screen: of about 350,000 compounds, about 31,000 (8.9%) were called active. Inconclusive means that the source gave no clear call. Such entries were picked first, then a sample of the others. Calls follow the shape of the dose curve; as a rule, active = well fitted inhibition curve with a large enough effect; inconclusive = small, poorly fitted or top-dose-only effect; inactive = no such curve, though single readings can be large or run the other way. A potency beside an inconclusive call is a rough fit, not a confirmed value.
# Molecular target: Histone-lysine N-methyltransferase EHMT2 (Homo sapiens) (UniProt Q96KQ7)
# UniProt Q96KQ7, sequence (Q96KQ7 whole entry, looked up): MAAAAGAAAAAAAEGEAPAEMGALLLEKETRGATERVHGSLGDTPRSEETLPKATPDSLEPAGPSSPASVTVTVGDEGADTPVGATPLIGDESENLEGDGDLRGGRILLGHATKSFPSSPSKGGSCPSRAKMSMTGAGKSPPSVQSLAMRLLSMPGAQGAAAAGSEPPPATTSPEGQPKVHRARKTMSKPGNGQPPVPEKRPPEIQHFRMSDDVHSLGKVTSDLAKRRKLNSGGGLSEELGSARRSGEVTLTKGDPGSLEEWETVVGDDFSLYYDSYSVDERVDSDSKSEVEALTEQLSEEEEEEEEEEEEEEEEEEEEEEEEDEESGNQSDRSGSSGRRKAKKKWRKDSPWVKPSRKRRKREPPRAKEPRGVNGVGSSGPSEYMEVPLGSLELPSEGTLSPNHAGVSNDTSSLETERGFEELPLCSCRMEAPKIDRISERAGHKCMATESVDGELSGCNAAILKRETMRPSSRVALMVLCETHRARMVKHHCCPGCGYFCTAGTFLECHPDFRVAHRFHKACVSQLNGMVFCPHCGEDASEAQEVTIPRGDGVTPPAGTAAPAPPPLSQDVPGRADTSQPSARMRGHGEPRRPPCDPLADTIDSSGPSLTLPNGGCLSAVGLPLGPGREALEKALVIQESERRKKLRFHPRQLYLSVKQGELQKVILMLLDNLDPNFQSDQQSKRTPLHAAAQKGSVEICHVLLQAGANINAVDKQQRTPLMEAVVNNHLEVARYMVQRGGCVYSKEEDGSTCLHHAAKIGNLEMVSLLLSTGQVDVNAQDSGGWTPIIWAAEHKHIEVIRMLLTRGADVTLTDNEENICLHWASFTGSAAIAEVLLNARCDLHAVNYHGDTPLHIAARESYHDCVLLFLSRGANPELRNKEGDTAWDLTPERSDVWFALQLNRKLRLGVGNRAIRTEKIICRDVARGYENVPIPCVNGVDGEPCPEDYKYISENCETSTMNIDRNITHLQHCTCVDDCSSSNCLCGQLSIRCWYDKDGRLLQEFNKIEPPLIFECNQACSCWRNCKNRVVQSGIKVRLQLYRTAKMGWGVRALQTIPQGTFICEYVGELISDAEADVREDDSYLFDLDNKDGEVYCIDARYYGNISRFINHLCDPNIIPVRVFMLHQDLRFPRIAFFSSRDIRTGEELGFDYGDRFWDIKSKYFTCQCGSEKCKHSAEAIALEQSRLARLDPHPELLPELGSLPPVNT
# Test: qHTS Assay for Inhibitors of Histone Lysine Methyltransferase G9a; also: nearly all actives have a fitted effect of over 75% in size
# Conditions: G9a H3K9 monomethylation, AlphaScreen, 2 h; activity, negative = inhibition: at 59 µM (top of the series) unless noted
# How it was run: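 Quantitative HTS format: methyltransferase activity on a biotin-tagged H3K9 peptide is measured by AlphaScreen, using a rabbit anti-monomethyl-H3K9 antibody with streptavidin donor and anti-IgG acceptor beads. Final levels are 20 nM enzyme, 500 nM peptide, 20 uM SAM; 2 h RT.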
# % is scaled to controls: 0 for no effect and ±100 for the full control effect; potency is read from the fitted curve at half-maximal effect; tags tell the direction and shape of the fitted curve.
Compound,Potency,"activity, negative = inhibition"
Cc1nc(CNS(=O)(=O)c2ccc3c(c2)CCCC3)cs1,"inconclusive: 50.1 µM [inhibitor, partial curve, poor fit]",
O=C(CCCCn1c(=O)c2ccccc2n(Cc2ccc(F)cc2Cl)c1=O)NCCc1ccc(Cl)cc1,inactive,
COc1ccc(/C=N/NC(=O)c2cccnc2)cc1CN1CCCc2ccccc21,"inconclusive: 39.8 µM [inhibitor, partial curve, poor fit]",
O=c1c2cc(Br)ccc2[nH]c(=S)n1Cc1cccnc1,inactive,
Cc1ccc(NC(=O)Cn2c(=O)n(Cc3ccc(F)cc3)c(=O)c3cccnc32)cc1C,inactive,
CC(C)c1nc(SCC(=O)Nc2cccc(C(=O)O)c2)c2c3c(sc2n1)CCCC3,inactive,
CS(=O)(=O)N1CCN(Cc2ccc(C(F)(F)F)cc2)CC1,active: 3.16 µM,
O=C(Cc1csc(N2CCOCC2)n1)N/N=C/c1ccc(O)c(O)c1O,active: 3.55 µM,
COc1ccc(OC)c(C2=Nn3c(nnc3-c3cccc(OC(C)C)c3)SC2)c1,"inconclusive: 31.6 µM [inhibitor, single point]",
CC1CCc2nc(NC(=O)C3COc4ccccc4O3)sc2C1 (stereo not given),"inconclusive: 1.12 µM [inhibitor, full curve, poor fit]",
Cc1ccc(C)c(OCCN2CCOCC2)c1,"inconclusive: 39.8 µM [inhibitor, partial curve, poor fit]",
O=C(Nc1ccc(Oc2cccc3ccccc23)cc1)c1ccco1,"inconclusive: 44.7 µM [inhibitor, partial curve]",
COc1cc(NS(=O)(=O)c2ccc(NC(=S)NC(=O)c3ccco3)cc2)ncn1,active: 50.1 µM,
Cc1cccc(COCC(Cc2ccccc2)N2CCN(C(=O)c3cccc(Cl)c3)CCC2=O)c1 (stereo not given),"inconclusive: 89.1 µM [inhibitor, single point]",
CCOC(=O)c1cc2c(=O)n3ccccc3nc2n(CCCOC)c1=NC(=O)c1c(-c2c(F)cccc2Cl)noc1C,"inconclusive: 6.31 µM [inhibitor, single point]",
O=C(Nc1ccc(Cl)cc1)[C@@H]1[C@@H]2C(=O)N(c3ccc(Cl)cc3)C(=O)[C@@H]2[C@H]2C=CC=NN21,"inconclusive: 7.08 µM [inhibitor, full curve, poor fit]",
NC(=O)c1ccc(NC(=O)COC(=O)CCCOc2ccccc2)cc1,"inconclusive: 44.7 µM [inhibitor, partial curve]",
CCC(=O)N1CCc2cc(CNC(=O)Nc3cc(OC)c(OC)c(OC)c3)ccc21,inactive,
COc1ccc(CN2CCNC(=O)C2CC(=O)N(C)C2CCOCC2)c(F)c1 (stereo not given),"inconclusive: 50.1 µM [inhibitor, single point]",
Cn1c(C(=O)N2CCCC(C(=O)O)C2)cc2sccc21 (stereo not given),"inconclusive: 79.4 µM [inhibitor, single point]",
COc1ccc(NC(=O)CCC(=O)NCCO)cc1,"inconclusive: 70.8 µM [inhibitor, partial curve, poor fit]",
CCOc1ccc(S(=O)(=O)Nc2ccc3c(c2)CCCN3C(=O)c2cccs2)cc1,inactive,
CC(C)(C)OC(=O)N/N=C/c1cccc([N+](=O)[O-])c1,active: 50.1 µM,

Compound,Potency,"activity, negative = inhibition"
CCOC(=O)c1ccc(Nc2c(-c3ccc(OC)cc3)nc3nc[nH]n23)cc1,"inconclusive: 35.5 µM [inhibitor, single point]",
CCN1CCN(C(=S)Nc2ccc(Cl)cc2)CC1,inactive,
Cc1cccc(Nc2nnc(SCc3cn4ccsc4n3)s2)c1,"inconclusive: 39.8 µM [inhibitor, single point]",
O=C(O)CC/C(=N\Nc1ccc([N+](=O)[O-])cc1)c1ccccc1,"inconclusive: 50.1 µM [inhibitor, partial curve, poor fit]",
Cc1ccc(C(=O)Nc2ccc3c4c(cccc24)CC3)cc1[N+](=O)[O-],inactive,
O=C1CNC(=O)N1c1ccc(Cl)cc1,inactive,
Cc1noc(C)c1CSCC(=O)N(C)CC(=O)Nc1ccccc1Cl,,inactive: 5.11% [at 0.501 µM]
O=C(NCCCCNC(=O)c1cccnc1Cl)c1cccnc1Cl,inactive,
O=C(NCCN1CCOCC1)C(=O)NCC1OCCN1C(=O)c1ccc(Cl)cc1 (stereo not given),"inconclusive: 89.1 µM [inhibitor, single point]",
O=[N+]([O-])c1ccc2c(c1)C(O)n1nc(-c3ccc(Cl)cc3Cl)nc1S2 (stereo not given),"inconclusive: 17.8 µM [inhibitor, single point]",
COc1ccc(-c2nc3c(n2O)CCc2c-3no[n+]2[O-])cc1,active: 50.1 µM,
Cc1ccc(NC(=O)C(OC(=O)c2ccc(C=O)cc2)c2ccccc2)cc1Cl (stereo not given),"inconclusive: 50.1 µM [inhibitor, partial curve]",
COC(=O)Cc1[nH]n(-c2nc3ccccc3s2)c(=O)c1C(C)=Nc1ccc(C)cc1,active: 14.1 µM,
O=C(N/N=C/c1ccccn1)c1ccc(NC(=O)c2cccc([N+](=O)[O-])c2)cc1,"inconclusive: 79.4 µM [inhibitor, single point]",
CCSc1nnc(C)n1-c1ccc(C(=O)O)cc1,"inconclusive: 2.51 µM [inhibitor, partial curve, poor fit]",
CC(=O)c1c(C)[nH]c(C(=O)CN2C(=O)NC(C)(c3ccc(C)cc3)C2=O)c1C (stereo not given),inactive,
COc1ccc(-n2c3c(cc(C(=O)NNc4ccccc4)c2=O)C(=O)CC(C)(C)C3)cc1,inactive,
CC1CCN(S(=O)(=O)c2ccc([N+](=O)[O-])cc2)CC1,,inactive: -0.805% [at 0.501 µM]
Cc1ccc(-n2c(-c3cc(C)n(C)n3)n[nH]c2=S)cc1,active: 7.94 µM,
Cc1ccc(-c2cc(-c3ccccc3)c3c(N)c(S(C)(=O)=O)sc3n2)cc1,"inconclusive: 44.7 µM [inhibitor, partial curve]",
CC(=O)c1ccc(Nc2cnn(C34CC5CC(CC(CC(=O)O)(C5)C3)C4)c(=O)c2Cl)cc1,"inconclusive: 89.1 µM [inhibitor, single point]",
c1ccc(-c2ccc3c(c2)c2c4n3CCN=C4CCC2)cc1,active: 20 µM,
